The test deals with MLKL phosphorylation, HT29-L23 human colorectal adenocarcinoma cells. Kind of test: cells. The settings on record: read-out: pMLKL HCS Cell Assay (IC50, uM).
For orientation: IC50 means the concentration that inhibits the measured activity by half. Take `COc1ncc(-c2cc(C(F)(F)F)c3c(N)ncnn23)cc1C(=O)N[C@@H]1CN(S(=O)(=O)C(C)C)C[C@@H]1F` [Example 1460, 5-(4-Amino-5-(trifluoromethyl)pyrrolo[2,1-f][1,2,4]triazin-7-yl)-N-((3R,4S)-4-fluoro-1-(isopropylsulfonyl)pyrrolidin-3-yl)-2-methoxynicotinamide]: the IC50 came to 0.042 µM.

As for `Nc1ncnn2c(-c3ccc(Cl)c(C(=O)N[C@@H]4CN(C(=O)CC(C(F)(F)F)C(F)(F)F)C[C@@H]4F)c3)cc(CN3CCC(F)(F)CC3)c12` [Example 1138, 5-{4-amino-5-[(4,4-difluoropiperidin-1-yl)methyl]pyrrolo[2,1-f][1,2,4]triazin-7-yl}-2-chloro-N-[(3R,4S)-4-fluoro-1-[4,4,4-trifluoro-3-(trifluoromethyl)butanoyl]pyrrolidin-3-yl]benzamide], the 50% inhibitory concentration (IC50) is 0.00055 µM.

With `Nc1ncnn2c(-c3ccc(Cl)c(C(=O)N[C@@H]4CN(C(=O)c5ccccn5)C[C@@H]4F)c3)cc(C(F)(F)F)c12` [Example 956, 5-[4-amino-5-(trifluoromethyl)pyrrolo[2,1-f][1,2,4]triazin-7-yl]-2-chloro-N-[(3R,4S)-4-fluoro-1-(pyridine-2-carbonyl)pyrrolidin-3-yl]benzamide], the half-inhibitory concentration (IC50) stood at 0.185 µM.

Consider `Nc1ncnn2c(-c3ccc(F)c(C(=O)N[C@@H]4CN(C(=O)C5CCC(F)(F)CC5)C[C@@H]4F)c3F)cc(C(F)(F)F)c12` [Example 731, 3-[4-amino-5-(trifluoromethyl)pyrrolo[2,1-f][1,2,4]triazin-7-yl]-N-[(3R,4S)-1-(4,4-difluorocyclohexanecarbonyl)-4-fluoropyrrolidin-3-yl]-2,6-difluorobenzamide], for which the IC50 is 0.253 µM.

Take `COc1ncc(-c2cc(C(F)(F)F)c3c(N)ncnn23)cc1C(=O)Nc1cnn(C(C)c2ccc(F)cc2)c1` (stereo not drawn) [Example 1776, 5-(4-amino-5-(trifluoromethyl)pyrrolo[2,1-f][1,2,4]triazin-7-yl)-N-(1-(1-(4-fluorophenyl)ethyl)-1H-pyrazol-4-yl)-2-methoxynicotinamide]: the IC50 worked out at 0.00074 µM.

Turning to `COc1c(F)cc(-c2cc(C(F)(F)F)c3c(N)ncnn23)cc1C(=O)N[C@@H]1CN(C(=O)CC(C)(O)C(F)(F)F)C[C@@H]1F` (stereo partly drawn) [Example 696, 5-[4-amino-5-(trifluoromethyl)pyrrolo[2,1-f][1,2,4]triazin-7-yl]-3-fluoro-N-[(3R,4S)-4-fluoro-1-(4,4,4-trifluoro-3-hydroxy-3-methylbutanoyl)pyrrolidin-3-yl]-2-methoxybenzamide], the half-maximal inhibitory concentration (IC50) came to 0.023 µM.

Turning to `Cc1ncc(-c2cc(C(F)(F)F)c3c(N)ncnn23)cc1C(=O)NCC[C@@H](O)c1ccc(Cl)cc1` [Example 165, 5-[4-amino-5-(trifluoromethyl)pyrrolo[2,1-f][1,2,4]triazin-7-yl]-N-[(3R)-3-(4-chlorophenyl)-3-hydroxypropyl]-2-methylpyridine-3-carboxamide], the IC50 turned out to be 0.0011 µM.

For `COc1ncc(-c2cc(C(F)(F)F)c3c(N)ncnn23)cc1C(=O)N[C@H]1CN(CC(O)C(F)(F)F)CC1F` (single isomer, unassigned) [Example 44-3], the IC50 worked out at 0.296 µM.

Take `COc1ncc(-c2cc(C(F)(F)F)c3c(N)ncnn23)cc1C(=O)N[C@@H]1CN(S(=O)(=O)c2ccc(C)c(C)c2)C[C@@H]1F` [Example 1469, 5-[4-amino-5-(trifluoromethyl)pyrrolo[2,1-f][1,2,4]triazin-7-yl]-N-[(3R,4S)-1-(3,4-dimethylbenzenesulfonyl)-4-fluoropyrrolidin-3-yl]-2-methoxypyridine-3-carboxamide]: the IC50 was found to be 0.212 µM.

Turning to `CC(CC(=O)N1C[C@H](F)[C@H](NC(=O)c2cc(-c3cc(C(F)(F)F)c4c(N)ncnn34)ccc2Cl)C1)C(F)(F)F` (stereo partly drawn) [Example 941, 5-[4-amino-5-(trifluoromethyl)pyrrolo[2,1-f][1,2,4]triazin-7-yl]-2-chloro-N-[(3R,4S)-4-fluoro-1-(4,4,4-trifluoro-3-methylbutanoyl)pyrrolidin-3-yl]benzamide], the concentration for half-maximal inhibition (IC50) is 0.0025 µM.

For the compound `CC(C(=O)N1C[C@H](F)[C@H](NC(=O)c2cc(-c3cc(C(F)(F)F)c4c(N)ncnn34)ccc2OC(F)F)C1)C(F)(F)F` (stereo partly drawn) [Example 1093, 5-[4-amino-5-(trifluoromethyl)pyrrolo[2,1-f][1,2,4]triazin-7-yl]-2-(difluoromethoxy)-N-[(3R,4S)-4-fluoro-1-(3,3,3-trifluoro-2-methylpropanoyl)pyrrolidin-3-yl]benzamide], the IC50 worked out at 0.036 µM.

As to `CC(C)(F)C(=O)N1C[C@H](F)[C@H](NC(=O)c2cc(-c3cc(C(F)(F)F)c4c(N)ncnn34)c(F)cc2F)C1` [Example 782, 5-[4-amino-5-(trifluoromethyl)pyrrolo[2,1-f][1,2,4]triazin-7-yl]-2,4-difluoro-N-[(3R,4S)-4-fluoro-1-(2-fluoro-2-methylpropanoyl)pyrrolidin-3-yl]benzamide], the 50% inhibitory concentration (IC50) worked out at 0.023 µM.

For the compound `Cc1ccc(-c2cc(CN3CCC(C(F)(F)F)CC3)c3c(N)ncnn23)cc1C(=O)N[C@@H]1CN(C(=O)C(C)(C)C(F)(F)F)C[C@@H]1F` [Example 1652, 5-(4-amino-5-{[4-(trifluoromethyl)piperidin-1-yl]methyl}pyrrolo[2,1-f][1,2,4]triazin-7-yl)-N-[(3R,4S)-4-fluoro-1-(3,3,3-trifluoro-2,2-dimethylpropanoyl)pyrrolidin-3-yl]-2-methylbenzamide], the IC50 turned out to be 0.00077 µM.

As to `Cc1ccc(-c2cc(C(F)(F)F)c3c(N)ncnn23)cc1C(=O)N[C@@H]1CN(C(=O)c2ccncc2)C[C@@H]1F` [Example 1018, 5-[4-amino-5-(trifluoromethyl)pyrrolo[2,1-f][1,2,4]triazin-7-yl]-N-[(3R,4S)-4-fluoro-1-(pyridine-4-carbonyl)pyrrolidin-3-yl]-2-methylbenzamide], the 50% inhibitory concentration (IC50) is 0.0093 µM.

Regarding `[2H]C([2H])([2H])Oc1ncc(-c2cc(C(F)(F)F)c3c(NC(C)=O)ncnn23)cc1C(=O)N[C@@H]1CN(C(=O)[C@@H]2CCC(F)(F)C2)C[C@@H]1F` [Example 1342, N-[(3R,4S)-1-[(1R)-3,3-difluorocyclopentanecarbonyl]-4-fluoropyrrolidin-3-yl]-5-[4-acetamido-5-(trifluoromethyl)pyrrolo[2,1-f][1,2,4]triazin-7-yl]-2-methoxypyridine-3-carboxamide], the IC50 stood at 0.03 µM.

As to `COc1ncc(-c2cc(C(F)(F)F)c3c(N)ncnn23)cc1C(=O)N[C@@H]1CN(CC(O)c2ccccc2)C[C@@H]1F` (stereo partly drawn) [Example 465, 5-[4-amino-5-(trifluoromethyl)pyrrolo[2,1-f][1,2,4]triazin-7-yl]-N-[(3R,4S)-4-fluoro-1-(2-hydroxy-2-phenylethyl)pyrrolidin-3-yl]-2-methoxypyridine-3-carboxamide], the IC50 amounted to 0.388 µM.

In the case of `COc1ncc(-c2cc(C(F)(F)F)c3c(N)ncnn23)cc1C(=O)NC1CC(=O)N(Cc2ccccc2)C1` (stereo not drawn) [Example 137, 5-[4-amino-5-(trifluoromethyl)pyrrolo[2,1-f][1,2,4]triazin-7-yl]-N-(1-benzyl-5-oxopyrrolidin-3-yl)-2-methoxypyridine-3-carboxamide], the IC50 came to 0.453 µM.

For the compound `Cc1cc(F)c(-c2cc(CN3CCC(F)(F)CC3)c3c(N)ncnn23)cc1C(=O)N[C@@H]1CN(C(=O)C2CC2(F)F)C[C@@H]1F` (stereo partly drawn) [Example 1655, 5-{4-amino-5-[(4,4-difIuoropiperidin-1-yl)methyl]pyrrolo[2,1-f][1,2,4]triazin-7-yl}-N-[(3R,4S)-1-(2,2-difluorocyclopropanecarbonyl)-4-fluoropyrrolidin-3-yl]-4-fluoro-2-methylbenzamide], the IC50 worked out at 0.0013 µM.

With `CCNC(=O)c1cc(-c2cnc(OC)c(C(=O)N3CCC[C@@H](Cc4ccc(F)cc4)C3)c2)n2ncnc(N)c12` [Example 467, 4-amino-N-ethyl-7-{5-[(3S)-3-[(4-fluorophenyl)methyl]piperidine-1-carbonyl]-6-methoxypyridin-3-yl}pyrrolo[2,1-f][1,2,4]triazine-5-carboxamide], the half-maximal inhibitory concentration (IC50) was determined as 0.031 µM.

With `Cc1ccc(-c2cc(C(F)(F)F)c3c(N)ncnn23)cc1C(=O)N[C@@H]1CN(C(=O)C2CCC(F)(F)C2)C[C@@H]1F` (stereo partly drawn) [Example 989, 5-[4-amino-5-(trifluoromethyl)pyrrolo[2,1-f][1,2,4]triazin-7-yl]-N-[(3R,4S)-1-(3,3-difluorocyclopentanecarbonyl)-4-fluoropyrrolidin-3-yl]-2-methylbenzamide], the IC50 was 0.0016 µM.

For the compound `Nc1ncnn2c(-c3cccc(C(=O)N[C@@H]4CN(C(=O)c5ccc(F)c(F)c5)C[C@@H]4F)c3)cc(C(F)(F)F)c12` [Example 86, 3-[4-amino-5-(trifluoromethyl)pyrrolo[2,1-f][1,2,4]triazin-7-yl]-N-[(3R,4S)-1-(3,4-difluorobenzoyl)-4-fluoropyrrolidin-3-yl]benzamide], the half-maximal inhibitory concentration (IC50) was determined as 0.033 µM.

On to `Nc1ncnn2c(-c3cccc(C(=O)N[C@@H]4CN(C(=O)C5CC5(F)F)C[C@@H]4F)c3F)cc(C(F)(F)F)c12` (stereo partly drawn) [Example 773, 3-[4-amino-5-(trifluoromethyl)pyrrolo[2,1-f][1,2,4]triazin-7-yl]-N-[(3R,4S)-1-(2,2-difluorocyclopropanecarbonyl)-4-fluoropyrrolidin-3-yl]-2-fluorobenzamide], for which the half-maximal inhibitory concentration (IC50) was 0.23 µM.

In the case of `COc1ncc(-c2cc(C(F)(F)F)c3c(N)ncnn23)cc1C(=O)N[C@@H]1CN(S(=O)(=O)c2ccc(F)cc2)C[C@@H]1F` [Example 505, 5-[4-amino-5-(trifluoromethyl)pyrrolo[2,1-f][1,2,4]triazin-7-yl]-N-[(3R,4S)-4-fluoro-1-(4-fluorobenzenesulfonyl)pyrrolidin-3-yl]-2-methoxypyridine-3-carboxamide], the IC50 stood at 0.012 µM.

As to `[2H]C([2H])([2H])Oc1ncc(-c2cc(CN3CC(F)(F)C3)c3c(N)ncnn23)cc1C(=O)N[C@@H]1CN(C(=O)C2CC(F)C2)C[C@@H]1F` (stereo partly drawn) [Example 1273, 5-{4-amino-5-[(3,3-difluoroazetidin-1-yl)methyl]pyrrolo[2,1-f][1,2,4]triazin-7-yl}-N-[(3R,4S)-4-fluoro-1-(3-fluorocyclobutanecarbonyl)pyrrolidin-3-yl]-2-(methoxy-d3)nicotinamide], the half-inhibitory concentration (IC50) was 0.00086 µM.

Values taken from patent publication US11618753B2 (priority 2018, dated 2023).
